Measured values from the supplement of paper PMC8728848.
The list shows a part of the results.

What was measured:
Assay in all cases: glycan array binding signal (z-score within array); higher = stronger binding
Settings in all cases: glycan notation: IUPAC condensed, linker removed
[1] = target: Gal(b1-4)GlcNAc(b1-3)Gal(b1-4)GlcNAc(b1-3)Gal(b1-4)GlcNAc(b1-2)Man(a1-3)[Gal(b1-4)GlcNAc(b1-3)Gal(b1-4)GlcNAc(b1-3)Gal(b1-4)GlcNAc(b1-2)Man(a1-6)]Man(b1-4)GlcNAc(b1-4)GlcNAc
Method in brief: (§1)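 Negative Z-scores can be read as non-binding. The Z-score is calculated within each array and then averaged across arrays of one protein sequence at different concentrations or buffers and across linkers. Arrays, 3228 in all, were curated from the Consortium for Functional Glycomics database and kept only where the protein sequence was available.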

[2] = target: Gal(b1-4)GlcNAc(b1-3)Gal(b1-4)GlcNAc(b1-3)Gal(b1-4)GlcNAc(b1-2)Man(a1-3)[Gal(b1-4)GlcNAc(b1-3)Gal(b1-4)GlcNAc(b1-3)Gal(b1-4)GlcNAc(b1-2)Man(a1-6)]Man(b1-4)GlcNAc(b1-4)[Fuc(a1-6)]GlcNAc
Method in brief: as §1

[3] = target: Gal(b1-4)GlcNAc(b1-3)Gal(b1-4)GlcNAc(b1-3)Gal(b1-4)GlcNAc(b1-2)[Gal(b1-4)GlcNAc(b1-3)Gal(b1-4)GlcNAc(b1-3)Gal(b1-4)GlcNAc(b1-6)]Man(a1-6)[Gal(b1-4)GlcNAc(b1-3)Gal(b1-4)GlcNAc(b1-3)Gal(b1-4)GlcNAc(b1-2)Man(a1-3)]Man(b1-4)GlcNAc(b1-4)[Fuc(a1-6)]GlcNAc
Method in brief: as §1

[4] = target: Gal(b1-4)GlcNAc(b1-3)Gal(b1-4)GlcNAc(b1-3)Gal(b1-4)GlcNAc(b1-3)Gal(b1-4)GlcNAc(b1-2)Man(a1-3)[Gal(b1-4)GlcNAc(b1-3)Gal(b1-4)GlcNAc(b1-3)Gal(b1-4)GlcNAc(b1-3)Gal(b1-4)GlcNAc(b1-2)Man(a1-6)]Man(b1-4)GlcNAc(b1-4)GlcNAc
Method in brief: as §1

[5] = target: Gal(b1-4)GlcNAc(b1-3)Gal(b1-4)GlcNAc(b1-3)Gal(b1-4)GlcNAc(b1-3)Gal(b1-4)GlcNAc(b1-2)Man(a1-3)[Gal(b1-4)GlcNAc(b1-3)Gal(b1-4)GlcNAc(b1-3)Gal(b1-4)GlcNAc(b1-3)Gal(b1-4)GlcNAc(b1-2)Man(a1-6)]Man(b1-4)GlcNAc(b1-4)[Fuc(a1-6)]GlcNAc
Method in brief: as §1

[6] = target: Gal(b1-4)GlcNAc(b1-3)Gal(b1-4)GlcNAc(b1-3)Gal(b1-4)GlcNAc(b1-3)Gal(b1-4)GlcNAc(b1-2)[Gal(b1-4)GlcNAc(b1-3)Gal(b1-4)GlcNAc(b1-3)Gal(b1-4)GlcNAc(b1-3)Gal(b1-4)GlcNAc(b1-6)]Man(a1-6)[Gal(b1-4)GlcNAc(b1-3)Gal(b1-4)GlcNAc(b1-3)Gal(b1-4)GlcNAc(b1-3)Gal(b1-4)GlcNAc(b1-2)Man(a1-3)]Man(b1-4)GlcNAc(b1-4)[Fuc(a1-6)]GlcNAc
Method in brief: as §1

[7] = target: Gal(b1-4)GlcNAc(b1-3)Gal(b1-4)GlcNAc(b1-3)Gal(b1-4)GlcNAc(b1-3)Gal(b1-4)GlcNAc(b1-3)Gal(b1-4)GlcNAc(b1-2)Man(a1-3)[Gal(b1-4)GlcNAc(b1-3)Gal(b1-4)GlcNAc(b1-3)Gal(b1-4)GlcNAc(b1-3)Gal(b1-4)GlcNAc(b1-3)Gal(b1-4)GlcNAc(b1-2)Man(a1-6)]Man(b1-4)GlcNAc(b1-4)GlcNAc
Method in brief: as §1

[8] = target: Gal(b1-4)GlcNAc(b1-3)Gal(b1-4)GlcNAc(b1-3)Gal(b1-4)GlcNAc(b1-3)Gal(b1-4)GlcNAc(b1-3)Gal(b1-4)GlcNAc(b1-2)Man(a1-3)[Gal(b1-4)GlcNAc(b1-3)Gal(b1-4)GlcNAc(b1-3)Gal(b1-4)GlcNAc(b1-3)Gal(b1-4)GlcNAc(b1-3)Gal(b1-4)GlcNAc(b1-2)Man(a1-6)]Man(b1-4)GlcNAc(b1-4)[Fuc(a1-6)]GlcNAc
Method in brief: as §1

[9] = target: Gal(b1-4)GlcNAc(b1-3)Gal(b1-4)GlcNAc(b1-3)Gal(b1-4)GlcNAc(b1-3)Gal(b1-4)GlcNAc(b1-3)Gal(b1-4)GlcNAc(b1-2)[Gal(b1-4)GlcNAc(b1-3)Gal(b1-4)GlcNAc(b1-3)Gal(b1-4)GlcNAc(b1-3)Gal(b1-4)GlcNAc(b1-3)Gal(b1-4)GlcNAc(b1-6)]Man(a1-6)[Gal(b1-4)GlcNAc(b1-3)Gal(b1-4)GlcNAc(b1-3)Gal(b1-4)GlcNAc(b1-3)Gal(b1-4)GlcNAc(b1-3)Gal(b1-4)GlcNAc(b1-2)Man(a1-3)]Man(b1-4)GlcNAc(b1-4)[Fuc(a1-6)]GlcNAc
Method in brief: as §1

[10] = target: Gal(b1-4)GlcNAc(b1-3)Gal(b1-4)GlcNAc(b1-3)Gal(b1-4)GlcNAc(b1-3)Gal(b1-4)GlcNAc(b1-3)Gal(b1-4)GlcNAc(b1-3)Gal(b1-4)GlcNAc(b1-2)Man(a1-3)[Gal(b1-4)GlcNAc(b1-3)Gal(b1-4)GlcNAc(b1-3)Gal(b1-4)GlcNAc(b1-3)Gal(b1-4)GlcNAc(b1-3)Gal(b1-4)GlcNAc(b1-3)Gal(b1-4)GlcNAc(b1-2)Man(a1-6)]Man(b1-4)GlcNAc(b1-4)GlcNAc
Method in brief: as §1

[11] = target: Gal(b1-4)GlcNAc(b1-3)Gal(b1-4)GlcNAc(b1-3)GalNAc
Method in brief: as §1

[12] = target: Gal(b1-4)GlcNAc(b1-3)Gal(b1-4)GlcNAc(b1-3)[Gal(b1-4)GlcNAc(b1-3)Gal(b1-4)GlcNAc(b1-6)]GalNAc
Method in brief: as §1

[13] = target: Gal(b1-4)GlcNAc(b1-3)Gal(b1-4)GlcNAc(b1-6)[Gal(b1-3)]GalNAc
Method in brief: as §1

[14] = target: Gal(b1-4)GlcNAc(b1-3)Gal(b1-4)[Fuc(a1-3)]GlcNAc(b1-3)Gal(b1-4)[Fuc(a1-3)]GlcNAc
Method in brief: as §1

[15] = target: Gal(b1-4)GlcNAc(b1-3)GalNAc
Method in brief: as §1

[16] = target: Gal(b1-4)GlcNAc(b1-3)[Fuc(a1-3)GlcNAc(b1-6)]Gal(b1-4)Glc
Method in brief: as §1

[17] = target: Gal(b1-4)GlcNAc(b1-3)[Gal(b1-4)GlcNAc(b1-6)]Gal(b1-4)GlcNAc
Method in brief: as §1

[18] = target: Gal(b1-4)GlcNAc(b1-3)[GlcNAc(b1-6)]Gal(b1-4)GlcNAc
Method in brief: as §1

[19] = target: Gal(b1-4)GlcNAc(b1-6)Gal(b1-4)GlcNAc
Method in brief: as §1

B1: PX14367A-bth-493-35-493 (Bacteroides thetaiotaomicron) (protein)
chain: VSSDQVAVAGNAERLFNGAWYNLFEYGTTYANIGYRALQCQDDMMASDVVSRPKYGFNSSYQFNDVAIPSDGRTSFAWYLIYKTIDNCNTAISIKGDSEELRQAQGQALALRAFCYLHLVQHYQFTYLKDKDAPCVPIYTEPTTSGTKPKGKSTVAQVYQQIFDDLNLAQDYLTNYVRKGDGQKFKPNTDVVNGLMARAYLLTGQWGEAAKAAEAARKGYSLMTTTAEYEGFNNISNKEWIWGSPQTLSQSDASYNFYYLDATYVGAYSSFMADPHLMDTFVKGDIRLPLFQWMREGYLGYKKFHMRSDDTADLVLMRSAEMYLIEAEAKVRDGVALDQAVAPLNTLRTARGVGNYDVTGKTKEQVIDEILMERRRELWGEGFGITDVLRNQKAVERMALSEDMQKTEVDCWQEGGSFAKRNPLGHWFLNFPDGKAFSANSSYYLYAIPEKEINANPNL
[1]
  glycan array binding signal (z-score): 2.81
[2]
  glycan array binding signal (z-score): 2.6
[3]
  glycan array binding signal (z-score): 2.31
[4]
  glycan array binding signal (z-score): 1.4
[5]
  glycan array binding signal (z-score): 2.51
[6]
  glycan array binding signal (z-score): 1.66
[7]
  glycan array binding signal (z-score): 1.34
[8]
  glycan array binding signal (z-score): 6.87
[9]
  glycan array binding signal (z-score): 0.964
[10]
  glycan array binding signal (z-score): 1.98
[11]
  glycan array binding signal (z-score): 0.056
[12]
  glycan array binding signal (z-score): 1.74
[13]
  glycan array binding signal (z-score): 0.226
[14]
  glycan array binding signal (z-score): -0.418
[15]
  glycan array binding signal (z-score): -0.545
[16]
  glycan array binding signal (z-score): -0.261
[17]
  glycan array binding signal (z-score): 0.049
[18]
  glycan array binding signal (z-score): -0.767
[19]
  glycan array binding signal (z-score): -0.294
